In the supplement of paper PMC11383711:
The other results are listed elsewhere or left out. Binding of human antibodies (heavy:light variable regions, tested as scFv in one mRNA-display pool) to influenza hemagglutinin, with or without the stem antibody CR9114 bound first. Score = (mean enrichment − median) / interquartile range of that screen; higher = more enriched, 0 = typical non-binder. Active = above the paper's cut-off per screen: stems 28; unblocked H1 Solomon Islands 5, H1 Michigan 3, H3 5, H5 19, H7 2.85, both B 5; blocked 9, 7, H5 10, H7 10, B Phuket 10, B Lee 11.5. Scores are scaled within each screen and are no affinities; replicates correlate at about 0.6 to 0.9, and antibodies rare in the pool are noisier.

Assays:
Test in all cases: mRNA display binding score; higher = more enriched on the antigen
[1] = target: Influenza A H1N1 A/Michigan/45/2015 hemagglutinin ectodomain
Experimental: (§1)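 A pool of natively paired antibodies, displayed as scFv on mRNA, was selected once on antigen-coated beads and sequenced before and after; two replicates.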

[2] = target: Influenza A H1N1 A/Solomon Islands/3/2006 hemagglutinin ectodomain
Experimental: as §1

[3] = target: Influenza A H3N2 A/Singapore/INFIMH-16-0019/2016 hemagglutinin ectodomain; settings: antigen blocked with: nothing
Experimental: as §1

[4] = target: Influenza A H5N1 A/Qinghai/1A/2005 hemagglutinin ectodomain
Experimental: as §1

[5] = target: Influenza A H7N9 A/Shanghai/2/2013 hemagglutinin ectodomain
Experimental: as §1

[6] = target: Influenza B/Lee/1940 hemagglutinin ectodomain
Experimental: as §1

[7] = target: Influenza B/Phuket/3073/2013 hemagglutinin ectodomain
Experimental: as §1

[8] = antigen blocked with: 2 µM CR9114 IgG

Measured: mRNA display binding score

B1: C1-3E03 (protein)
chain 1: VQLVESGGGLVQPGGSLRLSCVVSGFSFSKYEMNWVRQAPGKGLEWISYISSSGETIFYADSVRGRFTTSRDNAHNSLYLQMNSLRAEDTAIYYCANMRAWFWYDPADDIGHWGQGTLVTVSS
chain 2: EIVMTQSPVTLSVFPGERATLSCRASQSVNNNLAWYQQRPGQTPKLLIYDASTRATGIPARFSGSGSGTVFTLTISSLQSEDIAVYYCQQYAGWPPWTFGQGTKVEIK
inactive: [1]; [8] -0.352 | [1]; antigen blocked with: nothing -0.393 | [2]; [8] -0.528 | [2]; antigen blocked with: nothing -0.48 | [3] -0.133 | [4]; [8] -0.66 | [4]; antigen blocked with: nothing -0.446 | [5]; [8] -1.12 | [5]; antigen blocked with: nothing -0.355 | [6]; [8] -0.79 | [6]; antigen blocked with: nothing -0.412 | [7]; [8] -0.538 | [7]; antigen blocked with: nothing -0.356

B2: W85-1H08 (protein)
chain 1: EVQVVESGGGVVQPGRSLRLSCAASGFTFGSYAMYWVRQAPGKGLEWVAVISYDGSDKYYGDFVKGRFTISRDNSKNTLYLQMNSLRVEDTAVYYCLRGRYGDPPTDFWGQGTLVTVSS
chain 2: QSALTQPPSVSEAPRQRVTISCSGSRSNIGNNAVNWYQQLPGKAPKLLIFYDDLLSSGVSDRFSGSKSGTSASLAISGLQSEDEADYYCATWDDILNGPVFGGGTKLTV
inactive: [1]; [8] -0.447 | [1]; antigen blocked with: nothing -0.38 | [2]; [8] -0.253 | [2]; antigen blocked with: nothing -0.569 | [3] -0.22 | [4]; [8] -0.86 | [4]; antigen blocked with: nothing -0.636 | [5]; [8] -0.685 | [5]; antigen blocked with: nothing -0.661 | [6]; [8] 0.149 | [6]; antigen blocked with: nothing 0.652 | [7]; [8] -0.692 | [7]; antigen blocked with: nothing -0.292

B3: 236-14-IgG-1A06 (protein)
chain 1: QVQLQESGPGLVKPSETLSLTCTVSGGSISSSSHYCTWIRQPPGKGLEWIGGIYYTGNAYYNPSLKSRVTISVDASKNQFSLKLRSVTAADTAVFYCVGSQAIDAFDFWGQGTMVTVSS
chain 2: QSALTQPPSASGSPGQSVTISCTGTSSDVGYYNYVSWYQQHPGKAPKLMIYEVSNRPSGVPDRFSGSKSGNSASLTVSGLQAEDEADYYCSSYGGSNNVIFGGGTKLTVL
active: [1]; [8] 45.3
inactive: [1]; antigen blocked with: nothing 2.43 | [2]; [8] 0.386 | [2]; antigen blocked with: nothing 0.0552 | [3] 0.356 | [4]; [8] 0.605 | [4]; antigen blocked with: nothing 0.314 | [5]; [8] 0.455 | [5]; antigen blocked with: nothing 0.179 | [6]; [8] 0.549 | [6]; antigen blocked with: nothing -0.122 | [7]; [8] 0.174 | [7]; antigen blocked with: nothing -0.091

B4: SFV009-3A02 (protein)
chain 1: EVQLLESGGGLVQPGGSLRLSCEASGFTFISYAMSWVRQAPGKGLEWVSVISGSGGARYYADSVKGRFTISRDNSKNTLYLEMNNVRAEDTAVYFCAKDRILPYDTDAFDIWGQGTMVTVSS
chain 2: DIQMTQSPSTLSASVGDRVTITCRASESVSVSLAWYQQKPGKAPKLLIYKASTLESGVPPRFSGSGSGTEFTLTISSLQPNDFATYYCQEYHTSSRVTFGPGTKVDIK
inactive: [1]; [8] -0.255 | [1]; antigen blocked with: nothing -0.642 | [2]; [8] -0.343 | [2]; antigen blocked with: nothing -0.712 | [3] -0.573 | [4]; [8] -0.572 | [4]; antigen blocked with: nothing -0.535 | [5]; [8] -0.132 | [5]; antigen blocked with: nothing -0.448 | [6]; [8] 0.514 | [6]; antigen blocked with: nothing -0.388 | [7]; [8] -0.296 | [7]; antigen blocked with: nothing -0.324

B5: antibody 3E05 (protein)
chain 1: EVQLVESGGGLVQPGGSLRLSCAASGFTFSSYDMHWVRQAAGKGLEWVSAIGTAGDPYYPGSVKGRFTISRENAKNSLYLQLNSLRAGDTAVYYCARGVAASLVPRRYYYGLDVWGQGTTVTVSS
chain 2: SYELTQPPSVSVSPGQTASITCSGDMLGDKYACWYQQKPGQSPVLVIYEDTKRPSGIPERFSGSNSGNTATLTISGTQAMDEADYYCQAWTGSTPVVFGGGTKLTVL
inactive: [1]; [8] -0.555 | [1]; antigen blocked with: nothing -0.684 | [2]; [8] -0.547 | [2]; antigen blocked with: nothing -0.681 | [3] -0.169 | [4]; [8] -0.776 | [4]; antigen blocked with: nothing -0.458 | [5]; [8] 8.65 | [5]; antigen blocked with: nothing -0.14 | [6]; [8] -0.104 | [6]; antigen blocked with: nothing 0.238 | [7]; [8] -0.302 | [7]; antigen blocked with: nothing -0.276

B6: R95-1H10 (protein)
chain 1: EVQLVESGGVVVQPGGSLRLSCAASGFTFDDFVMHWVRQAPGKGLEWLSLITWDGGNSYYADSVKGRFTISRDNNKNSLYLQMNSLRPEDTAFYYCAKDIISGNYEDFSGYLDSWGQGTLVTVSS
chain 2: EIVMTQSPATLSVSPGGRATLSCRASQSVSSNLAWYQQKPGQPPRLLMYGASTRATGIPARFSGSGSGTEFTLTISSLQSEDVAVYYCQQYNNWPSITFGQGTRLEIK
inactive: [1]; [8] -0.139 | [1]; antigen blocked with: nothing -0.336 | [2]; [8] -0.0852 | [2]; antigen blocked with: nothing -0.591 | [3] -0.153 | [4]; [8] -0.276 | [4]; antigen blocked with: nothing -0.259 | [5]; [8] -0.244 | [5]; antigen blocked with: nothing -0.189 | [6]; [8] 0.729 | [6]; antigen blocked with: nothing -0.406 | [7]; [8] 3.46
active: [7]; antigen blocked with: nothing 5.43

B7: AG11-2A01 (protein)
chain 1: VQLVESGGAVVQPGGSLTLSCAASGFTFDDYAMHWVREVPGKGLEWVSLISWDAGNTYYGDSVKGRFNISRDNSKNFLYLQMNSLRADDTALYYCAKDIGGGNYDYYHGMDAWGQGTTVTVSS
chain 2: EIVMTQSPATLSVSPGERATLSCRASYSFGSKLAWYQQKPGQAPRLLIYGTSTRATGIPARFSGSGSGTEFTLTISSLQSEDFAVYYCQQYNNWPYTFGQGTKVEIK
inactive: [1]; [8] -0.0428 | [1]; antigen blocked with: nothing -0.46 | [2]; [8] -0.365 | [2]; antigen blocked with: nothing -0.513 | [3] -0.47 | [4]; [8] -0.797 | [4]; antigen blocked with: nothing -0.561 | [5]; [8] -0.605 | [5]; antigen blocked with: nothing -0.606 | [6]; [8] 0.096 | [6]; antigen blocked with: nothing -0.327 | [7]; [8] 0.783 | [7]; antigen blocked with: nothing 1.92

B8: K77-2H08 (protein)
chain 1: QVQLQESGPGLVKPSETLSLTCSVSGNSITSGYFWGWIRQTPGKGLEFIGSISHKGEPYYNPPLKGRVAVSSDTSKNEFSLTLASVTAADTAIYYCARERGGTYGYFDHWGPGSLVTVSS
chain 2: DIQMTQSPSTLSASVGDRVTITCRASESIGAWVTWYQQKPGKAPNLLIYKASTLQTGVPSRFSGGGSGTDFTLTISSLQPDDFATYYCQQYFRDVTFGQGTKVEIK
inactive: [1]; [8] -0.481 | [1]; antigen blocked with: nothing -0.691 | [2]; [8] -0.232 | [2]; antigen blocked with: nothing -0.444 | [3] -0.53 | [4]; [8] -0.937 | [4]; antigen blocked with: nothing -0.659 | [5]; [8] -0.691 | [5]; antigen blocked with: nothing -0.75 | [6]; [8] 0.0168 | [6]; antigen blocked with: nothing -0.28 | [7]; [8] -0.59 | [7]; antigen blocked with: nothing -0.36

B9: W85-2E09 (protein)
chain 1: EVQLVESGGGLVQPGRSLRLSCTASGFTFSDYTMNWVRQAPGKGLEWIGFIRSNLYGGTSPYPASVRDRFTISRDDSKNIAYLQMNSLNTEDTAVYFCSRRRRGSTPLPDLWGQGTLVTVSS
chain 2: DIQMTQSPSTLSASVGDRVTITCRASQNVFSWLAWYQQKSGKAPQLLIYKASNLESGVPSRFSGSGSGTEFTLTINNLQPDDFASYYCQQYNSHSVWTFGQGTKVELK
inactive: [1]; [8] 0.849 | [1]; antigen blocked with: nothing 2.94 | [2]; [8] 0.479 | [2]; antigen blocked with: nothing 4.99 | [4]; [8] 0.833 | [4]; antigen blocked with: nothing 2.65 | [5]; [8] -0.723 | [6]; [8] 1.83 | [7]; [8] 0.336 | [7]; antigen blocked with: nothing 3.87
active: [3] 8.42 | [5]; antigen blocked with: nothing 3.88 | [6]; antigen blocked with: nothing 17.3

B10: K77-1D10 (protein)
chain 1: QVQLQESGPGLVKTSGTLSLTCAVSGGSMSSSDWWSWVRQPPGKGLEWIGEIHRSGTSNYNPSLQTRVTISVDKSKNQFSLKLTSVTAADTAVYYCARVATLYYDDNTPYSSYYFDFWGQGILVPVSS
chain 2: EIVLTQSPGTLSLSPGERATLSCRASQSVSTNYLAWYQQSPGQAPRLLIYGASSRAAGIPDRFSGSGSGTDFTLTITRLEPEDFAVYYCQHYVTSPLFGGGTKVEI
inactive: [1]; [8] -0.354 | [1]; antigen blocked with: nothing -0.504 | [2]; [8] -0.608 | [2]; antigen blocked with: nothing -0.264 | [3] 0.116 | [4]; [8] -0.696 | [4]; antigen blocked with: nothing -0.464 | [5]; [8] 0.12 | [5]; antigen blocked with: nothing -0.528 | [6]; [8] -0.419 | [6]; antigen blocked with: nothing -0.231 | [7]; [8] -0.464 | [7]; antigen blocked with: nothing -0.399

B11: 051-10-2D06 (protein)
chain 1: EVQLVESGGGLVQPGGSLRLSCAASGFTFTRHWMSWVRQAPGKGLEWVANVKQDGSDKYYVDSVKGRFTISRDNAKNSVYLQMNSLRAEDTAVYYCARYGGSYLDYWGQGTLVTVSS
chain 2: QSALTQPASVSGSPGQSISISCTGTSSDVGNYNFVSWYQQHPGKAPKLMIYEDNKRPSGVSSRFSGSKSGNTASLTIFGLQAEDEADYYCCSYAGSSTYVFGTGTRVPVL
inactive: [1]; [8] 0.599 | [1]; antigen blocked with: nothing -0.349 | [2]; [8] 0.0606 | [2]; antigen blocked with: nothing -0.189 | [3] -0.0481 | [4]; [8] -0.515 | [4]; antigen blocked with: nothing -0.466 | [5]; [8] 1.37 | [5]; antigen blocked with: nothing -0.405 | [6]; [8] 0.532 | [6]; antigen blocked with: nothing 0.649 | [7]; [8] -0.143 | [7]; antigen blocked with: nothing -0.073

B12: K77-1E06 (protein)
chain 1: EVQVVESGGRLVRPGGSLRLSCAASGFILSNFWMTWVRQAPGKGLEFVANIKQDGSLKYYVDSVKGRFTISRDNAMNSVYLQMNSVRAEDSAVYYCARDWFGRELGAMDIWGQGTTVTVSS
chain 2: DIVMTQSPDSLAVSLGERATINCKSSQTLLSRSNNKNYLAWYQHRPGQPPKLLIYWASTRASGVPDRFSGSGSGTDFTLTITSLQAEDVAVYFCQQYYGSPLTFGGGTRVQIK
inactive: [1]; [8] 0.0927 | [1]; antigen blocked with: nothing -0.293 | [2]; [8] -0.536 | [2]; antigen blocked with: nothing -0.113 | [3] 2.22 | [4]; [8] -0.568 | [4]; antigen blocked with: nothing -0.179 | [5]; [8] 0.605 | [5]; antigen blocked with: nothing -0.317 | [6]; [8] -0.315 | [6]; antigen blocked with: nothing -0.153 | [7]; [8] 0.49 | [7]; antigen blocked with: nothing -0.0837
